Out of some 310,000 compounds screened, about 2,200 (0.71%) showed an effect of 50% or more. Effects have a minus sign here. Some of the results follow.
molecular target: human ether-à-go-go-related gene (hERG) potassium channel (human, UniProt Q12809); experiment: primary screen, population patch clamp on CHO cells stably expressing hERG
Sequence (Q12809 whole entry, looked up): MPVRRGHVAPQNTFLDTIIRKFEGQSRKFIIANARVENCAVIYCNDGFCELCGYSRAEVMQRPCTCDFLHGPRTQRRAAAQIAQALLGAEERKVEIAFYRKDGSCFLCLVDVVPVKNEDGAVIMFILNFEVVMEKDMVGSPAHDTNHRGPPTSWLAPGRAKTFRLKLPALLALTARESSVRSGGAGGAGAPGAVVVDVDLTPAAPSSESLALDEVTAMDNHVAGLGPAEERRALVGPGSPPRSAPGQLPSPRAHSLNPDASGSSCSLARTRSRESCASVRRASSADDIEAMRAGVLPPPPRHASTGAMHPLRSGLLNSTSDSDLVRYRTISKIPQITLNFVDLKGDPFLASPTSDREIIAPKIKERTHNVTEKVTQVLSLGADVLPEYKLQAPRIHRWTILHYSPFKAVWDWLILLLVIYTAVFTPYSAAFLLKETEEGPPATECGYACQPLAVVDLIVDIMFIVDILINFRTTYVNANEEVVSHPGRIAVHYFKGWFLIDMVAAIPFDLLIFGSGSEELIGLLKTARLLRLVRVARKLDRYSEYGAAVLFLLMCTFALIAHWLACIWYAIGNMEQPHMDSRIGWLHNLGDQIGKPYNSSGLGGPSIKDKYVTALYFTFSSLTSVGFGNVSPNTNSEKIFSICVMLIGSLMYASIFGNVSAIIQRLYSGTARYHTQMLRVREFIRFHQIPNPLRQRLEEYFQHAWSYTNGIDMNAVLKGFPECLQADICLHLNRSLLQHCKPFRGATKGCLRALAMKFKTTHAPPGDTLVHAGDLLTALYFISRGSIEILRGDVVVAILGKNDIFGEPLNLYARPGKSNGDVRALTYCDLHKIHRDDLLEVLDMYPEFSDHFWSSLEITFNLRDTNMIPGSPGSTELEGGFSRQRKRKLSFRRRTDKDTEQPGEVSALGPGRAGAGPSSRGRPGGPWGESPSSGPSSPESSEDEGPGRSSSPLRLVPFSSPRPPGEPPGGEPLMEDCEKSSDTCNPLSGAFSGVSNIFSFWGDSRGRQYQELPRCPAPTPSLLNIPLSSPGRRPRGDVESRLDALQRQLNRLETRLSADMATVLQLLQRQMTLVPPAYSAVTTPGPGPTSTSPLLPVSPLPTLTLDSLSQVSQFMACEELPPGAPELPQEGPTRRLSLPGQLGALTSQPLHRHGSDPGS

| Structure (SMILES) | hERG current change (%, negative = inhibition) at 1uM [%] |
| --- | --- |
| CC1=CC(C)C2C(=O)N(c3ccccc3)NC(=O)C2C1 (centres unmarked) | 6.46 |
| COc1ccccc1CC(=O)Nc1cccc(C(=O)NN2C(=O)c3ccccc3C2=O)c1 | 1.52 |
| C=CCNC(=O)c1cc2c(=O)c3ccccc3oc2nc1C | -6.21 |
| Cc1noc(C)c1C(=O)OCC(=O)/C=C1\N(C)c2ccccc2C1(C)C | 11.4 |
| COC(=O)C1CN(C(=O)c2ccc(OC(F)F)cc2)c2ccccc2O1 (centres unmarked) | 12 |
| CN1CCN(/N=C/c2c(O)n(C)c(=O)n(C)c2=O)CC1 | 4.43 |
| Cc1csc(NC(=O)CSc2nnnn2C)n1 | 8.07 |
| Cc1ccccc1Cn1cc(C)c(=O)[nH]c1=O | 8.08 |
| CC(C)NCC(O)COCCOc1ccc(Br)cc1.Cl (centres unmarked) | 3.86 |
| COC(=O)c1ccccc1NC(=O)C/C(C)=N/NC(=O)Cc1ccc(Cl)cc1 | 16.3 |
| CC1=NN(c2ccc(C(F)(F)F)cn2)C(=O)C1 | -0.755 |
| CCC(=NCCCn1ccnc1)c1c(O)n(-c2ccc(OC)cc2)c(=O)[nH]c1=O | 13.5 |
| COc1cc(C(=O)NCc2nnc(SCC(=O)Nc3nc4ccccc4s3)o2)cc(OC)c1OC | 3.64 |
| CCOc1ccccc1N(CC)C(=O)Cn1ncc2c(=O)oc3ccccc3c21 | 8.12 |
| CC(C)(C)NCC(O)COc1cccc2[nH]c(=O)[nH]c12.Cl (centres unmarked) | 9.19 |
| CC(=O)Nc1ccc(Nc2nnc(-c3ccc(O)cc3)c3ccccc23)cc1 | 1.76 |
| COc1ccc(C(=O)N2CCCC(c3ccccc3)C2)cc1 (centres unmarked) | 14.1 |
| O=C(Nc1ccccc1O)c1ccc([N+](=O)[O-])cc1 | 6.93 |
| CC1=C(C(=O)Nc2ccccc2)C(c2ccc(N(C)C)cc2)NC(=O)N1 (centres unmarked) | 14.2 |

| Structure (SMILES) | hERG current change (%, negative = inhibition) at 1uM [%] |
| --- | --- |
| O=C(CSc1nnc(-c2ccccc2F)o1)Nc1ccc(N2CCOCC2)cc1 | 7.84 |
| O=C(NC(=S)Nc1ccccc1F)c1ccc(Br)o1 | 10.2 |
| CC(=O)N(c1ccc(C)cc1)c1nc(C)cc(C)c1C#N | 8.3 |
| C/C(=N\NC(=O)CC#N)c1ccc(Oc2ccccc2)cc1 | 0.211 |
| CC(=O)Nc1ccc(Oc2ccc(-c3noc(C)n3)cc2)cc1 | 3.05 |
| COc1cc(C(=O)NC(=S)Nc2ccc3[nH]c(=O)[nH]c3c2)cc(OC)c1OC | 12.1 |
| CCCCCCCCC(=O)N/N=C(\C)c1cccnc1 | 13.6 |
| CCS(=O)(=O)c1nc(S(=O)(=O)c2ccc(Cl)cc2)c(N2CCC(O)CC2)s1 | 14.5 |
| CCn1c(Cc2c(C)[nH]c3ccccc23)nnc1SCC(N)=O | 15.6 |
| Cc1cccc(NC(=O)COC(=O)c2cccc(S(=O)(=O)N3CCCCCC3)c2)c1 | -5.26 |
| O=C(COC(=O)[C@H](Cc1ccccc1)NC(=O)c1cccs1)Nc1cc(F)ccc1F | 6.72 |
| Cc1ccc(N2CC(c3nc4ccccc4n3C)CC2=O)cc1 (centres unmarked) | -1.51 |
| COc1cc(C)c(NC(=O)c2cc(C3CC3)nc3c2cnn3C(C)C)cc1OC | 2.51 |
| CCOc1ccc2nc(NC(=O)CS(=O)(=O)c3ccc(C)cc3)sc2c1 | 7.74 |
| CC1=C(C(=O)N2CCCC(C(=O)c3cccc(C(F)(F)F)c3)C2)OCCO1 (centres unmarked) | 14.7 |
| CS(=O)(=O)N1CCN(C(=O)Cc2ccc(Br)cc2)CC1 | 17.6 |
| O=C(Nc1c(C(=O)N2CCOCC2)cnn1-c1ccccc1)c1ccccc1F | 18 |
| C/C(=N\NC(=O)c1ccc(F)cc1)c1ccc(NC(=O)Cc2ccccc2)cc1 | -3.9 |
| CC(C)C(c1nnnn1CCc1ccccc1)N1CCC(C(N)=O)CC1 (centres unmarked) | 10.7 |

| Structure (SMILES) | hERG current change (%, negative = inhibition) at 1uM [%] |
| --- | --- |
| O=C(CN1C(=O)c2ccccc2C1=O)NC1CCCCCC1 | 11.8 |
| CCOC(=O)Cc1csc(NC(=O)CCN2C(=O)c3ccccc3C2=O)n1 | 1.96 |
| Cc1ccc(S(=O)(=O)Cc2cccc(C(=O)N3CCOCC3)c2)cc1 | 6.39 |
| O=C(Cc1ccccc1)NC1c2ccccc2-c2ccccc21 | 3.07 |
| CCCC(=O)N1CCN(c2ccc([N+](=O)[O-])cc2Cl)CC1 | -9.24 |
| Cc1cc(=O)oc(C)c1C(=O)NCc1ccccn1 | 10.5 |
| COc1ccccc1C(c1nnnn1C(C)(C)C)N1CCN(Cc2ccccc2)CC1.Cl (centres unmarked) | 6.92 |
| COc1ccc(-c2ccc(C#N)c(OC)n2)cc1 | 10.8 |
| COc1ccc(C(=O)C2CCCN(Cc3cccn3-c3ccccn3)C2)c(OC)c1 (centres unmarked) | -82.9 |
| COc1ccc(OC(=O)c2cccc([N+](=O)[O-])c2)c(C(=O)/C=C/c2cccs2)c1 | 0.856 |
| COc1cc(NC(=O)C2CCCN(S(=O)(=O)c3ccc4c(c3)CCCN4C(C)=O)C2)cc(OC)c1 (centres unmarked) | 5.64 |
| CN(C)c1cccc(C(=O)NNC(=S)NC2CCCC2)c1 | 15.2 |
| Cc1nn(Cc2ccc(Cl)cc2Cl)c(C)c1NC(=O)Cn1nc([N+](=O)[O-])c(Cl)c1C | 11.3 |
| COc1ccc(/C=C/C(=O)NC(=S)N2CCN(c3ccccn3)CC2)cc1OC | 11.5 |
| Cc1ccc(C)c(CN2CCC(CNC(=O)Nc3ccc(F)c(Cl)c3)CC2)c1 | -2.57 |
| COc1cccc(C(C(=O)NC2CCCC2)N(Cc2ccco2)C(=O)c2ccco2)c1OC (centres unmarked) | 5.89 |
| COc1ccc(N2CCN(C(=O)CCS(=O)(=O)c3ccc4c(c3)NC(=O)CO4)CC2)cc1 | 8.21 |
| COc1ccc(CCNc2ccc(C(CC(N)=O)NC(=O)Cc3cccc4ccccc34)cc2[N+](=O)[O-])cc1 (centres unmarked) | 3.74 |
